Measured values published in the CheMixHub viscosity set.

Conditions: 101 kPa

| Structure (SMILES) | viscosity (303.15 K) | viscosity (293.15 K) | viscosity (298.15 K) | viscosity (308.15 K) | viscosity (318.15 K) |
| --- | --- | --- | --- | --- | --- |
| O=C1CCCC1 | 0.985 ± 0.049 mPa·s [study A] and 0.996 ± 0.037 mPa·s [study B] and 0.989 ± 0.009 mPa·s [study C] and 0.998 ± 0.013 mPa·s [study D] and 0.998 ± 0.013 mPa·s [study E] | – | – | – | – |
| CC(O)CO (stereo not given) | – | 55.9 ± 1.1 mPa·s [study A] and 59.9 ± 0.16 mPa·s [study B] and 49.25 ± 0.27 mPa·s [study C] and 58.75 ± 0.25 mPa·s [study D] | 45.33 ± 1 mPa·s [study A] and 41.74 ± 1.3 mPa·s [study B] and 40.09 ± 0.22 mPa·s [study C] and 44.45 ± 0.9 mPa·s [study D] and 43.45 ± 0.24 mPa·s [study E] | 25.14 ± 0.71 mPa·s [study A] and 24.9 ± 0.5 mPa·s [study B] and 26.2 ± 0.62 mPa·s [study C] and 27.25 ± 0.15 mPa·s [study D] | 15.17 ± 0.9 mPa·s [study A] and 14.96 ± 0.43 mPa·s [study B] and 15.4 ± 0.3 mPa·s [study C] and 16.15 ± 0.4 mPa·s [study D] and 17.04 ± 0.097 mPa·s [study E] |

± gives the uncertainty stated by the source. Some entries of the source have several records that differ or are many. This list holds those alone. An entry can have further records. Results that share an entry are repeats across runs, samples, wells, individuals or studies. Records carry a tag for their origin. Letters hold for one entry only.
